Among all 45,000 compounds or so, about 65 (0.1%) were called active. Calls come from the whole dose curve; as a rule, active = well fitted activation curve with a large enough effect; inconclusive = small, poorly fitted or top-dose-only effect; inactive = no such curve, though single readings can be large or run the other way. This is one part of the list.
Target: Galactocerebrosidase (Homo sapiens) (UniProt P54803)
Assay: A Novel Cell-Based Assay to Identify Small Molecules for B -Galactocerebrosidase; note: 0% is about no effect; nearly all actives have a fitted effect of over 65% in size
Conditions: 145M-Twi-hGALC-G270D cells (Twitcher mouse brain line with human GALC G270D), HMU-beta-Gal fluorescence, 48 h; series mostly up to 57.5 µM; activation: at the top concentration
How it was run: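 Brain-derived Twitcher mouse 145M-Twi cells stably expressing human GALC-G270D or wild-type GALC, treated live, then residual GALC activity read by fluorescence of HMU-b-Gal substrate (0.1 mM final) in citrate-phosphate buffer pH 5.2 with sodium taurocholate. Signal increase indicates enhancement.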

Chain of UniProt P54803 (P54803 whole entry, looked up): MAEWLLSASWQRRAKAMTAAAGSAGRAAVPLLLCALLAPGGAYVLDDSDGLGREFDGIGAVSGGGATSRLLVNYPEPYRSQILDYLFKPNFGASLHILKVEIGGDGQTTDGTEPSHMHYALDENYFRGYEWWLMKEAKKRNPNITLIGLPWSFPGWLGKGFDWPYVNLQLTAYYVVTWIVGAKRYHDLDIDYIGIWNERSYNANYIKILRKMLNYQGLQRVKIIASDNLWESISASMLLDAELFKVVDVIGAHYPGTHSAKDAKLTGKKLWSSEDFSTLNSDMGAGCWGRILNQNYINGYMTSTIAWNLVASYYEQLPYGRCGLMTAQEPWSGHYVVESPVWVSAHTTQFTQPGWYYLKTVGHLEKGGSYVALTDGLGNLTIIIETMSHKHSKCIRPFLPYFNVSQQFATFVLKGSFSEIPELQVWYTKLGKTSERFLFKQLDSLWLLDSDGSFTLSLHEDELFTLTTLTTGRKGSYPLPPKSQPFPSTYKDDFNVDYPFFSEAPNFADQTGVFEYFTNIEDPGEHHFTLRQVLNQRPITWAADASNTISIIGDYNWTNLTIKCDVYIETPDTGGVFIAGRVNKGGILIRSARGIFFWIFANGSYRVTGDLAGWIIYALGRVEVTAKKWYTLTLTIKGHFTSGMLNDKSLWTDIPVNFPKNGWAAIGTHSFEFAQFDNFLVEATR

SMILES	activation
Cc1oc2cc3oc(=O)c(CC(=O)NCc4ccccc4)c(C)c3cc2c1C	inactive: 3.91%
Cc1ccc(-n2c(=O)c3sc4ccccc4c3n(C)c2=O)cc1F	inactive: -2.58%
COc1cccc(NC(=O)c2oc3ccccc3c2NC(=O)c2ccc(F)c(F)c2)c1	inactive: -11.2%
Cc1ccc(C)c(NC(=O)c2ccc3c(c2)CCCN3S(C)(=O)=O)c1	inactive: -14.3%
Cc1ccc(CNC(=O)CCc2c(C)nn(-c3ccc(N4CCOCC4)nn3)c2C)cc1	inactive: 19.9%
O=C(NCC(c1cccnc1)N1CCN(c2ccccc2F)CC1)C(=O)Nc1ccc(F)cc1F (stereo unspecified)	inactive: -11.7%
COc1cccc(N2CCN(C(=O)C3CCCN(S(=O)(=O)c4cccc5nsnc45)C3)CC2)c1 (stereo unspecified)	inactive: -16.2%
CCOc1ccc(C(=O)c2cn(CC(=O)Nc3ccc4c(c3)OCO4)c3ccc(OC)cc3c2=O)cc1	inactive: -19.2%
O=C(CCn1c(=O)c2cccn2c2cccnc21)NCc1ccccc1Cl	inactive: -3.18%
O=C(CSc1nc2ncccc2[nH]1)Nc1cc(F)ccc1F	inactive: -15.6%
Cc1ccc(S(=O)(=O)c2cn(CC(=O)Nc3cccc(Cl)c3)c3ccccc3c2=O)cc1	inactive: 3.85%
Cc1ccc(Cl)cc1NC(=O)CSc1nc2ccccc2c2nc(-c3ccccc3)nn12	inactive: 2%
CCOC(=O)C1CCN(C(=O)c2nn(-c3ccc(OC)c(Cl)c3)c(=O)c3c2c2ccccc2n3C)CC1	inactive: 4.23%
CCOc1ccc(C(=O)Nc2cc(-c3nc4cc(OC)ccc4o3)ccc2C)cc1[N+](=O)[O-]	inactive: -11.5%
COc1ccc(OC)c(NC(=O)Cn2c(=O)c3cccn3c3ccccc32)c1	inactive: -14.8%
CCOc1ccc2c(c1)c(=O)c(C(=O)c1ccc(CC)cc1)cn2CC(=O)Nc1ccccc1OC	inactive: -6.31%
O=C(Nc1cccc(Cl)c1)C1CCCN(c2nn3cc(-c4ccc(F)cc4)nc3s2)C1 (stereo unspecified)	inactive: -2.98%
CCn1c(=O)n(-c2ccc3c(c2)OCO3)c2nc(-c3ccc(C(C)C)cc3)nc(C(N)=O)c21	inactive: 11.4%
O=C(COc1ccc2ccccc2c1)NC1CC(=O)N(c2ccc(F)cc2)C1 (stereo unspecified)	inactive: -11.6%
CCOc1ccccc1NC1(c2ccccc2)C(=O)c2ccccc2C1=O	inactive: -15%
CC1CCCCN1CCCNC(=O)c1cc(Sc2cccc(Cl)c2)nc2ccccc12 (stereo unspecified)	inactive: -15.2%
Cc1ccccc1CN1c2ccccc2-c2nc(SCC(=O)c3ccccc3)ncc2S1(=O)=O	inactive: -11.1%
O=C(Cn1cc(C(=O)C(F)(F)F)c2ccccc21)N1CCCCCC1	inactive: 2.55%
CC1(C)N=C(SCc2ccc(F)cc2)c2ccccc2N1	inactive: -13.5%

SMILES	activation
CCNC(=O)c1ccc2c(c1)nc1n2CCCCC1	inactive: 16.6%
Cc1ccccc1OCc1nc2c3cnn(-c4cccc(F)c4)c3ncn2n1	inactive: -12.2%
Cc1c(CNC2CCCCC2)c(C(=O)O)c(C)n1Cc1ccccc1F	inactive: -9.59%
CC(=O)N1CCCc2cc(S(=O)(=O)N3CCN(c4ccccc4F)CC3)ccc21	inactive: -13.4%
COc1cccc(C2C(C(=O)Nc3ccc(Cl)cc3)=C(C)Nc3nc4ccccc4n32)c1OC (stereo unspecified)	inactive: 0.7%
Cc1ccc2c(c1)N(C(=O)N1CCC(C(=O)NCc3ccccc3C)CC1)CC(C)O2 (stereo unspecified)	inactive: -20%
CCCCNC(=O)c1ccc2c(c1)N(CC)C(=O)c1ccccc1S2	inactive: -11.4%
Cc1oc2ncn(CC(C)C)c(=O)c2c1C(=O)N(CCN(C)C)Cc1ccccc1	inactive: -16.4%
CCCCNC(=O)c1c(-c2ccccc2)c(-c2ccccc2)nn(C)c1=O	inactive: -13.3%
CC(C)(C)C(=O)C(Oc1ccc(Cl)cc1)n1ccnc1 (stereo unspecified)	inactive: -15.8%
CCNC(=O)c1c(NC(=O)Cc2coc3ccc(CC)cc23)sc2c1CCCC2	inactive: -14.6%
CCCCNC(=O)CN1C(=O)c2cccnc2Sc2ccccc21	inactive: -20.8%
COc1ccc(C)cc1NC(=O)c1cc(S(=O)(=O)N2CCOCC2)cn1C	inactive: -10.5%
O=C(CSc1nc(=O)[nH]c2c1CCCC2)NCc1ccccc1Cl	inactive: -12.5%
CC1=C(C(=O)Nc2cccnc2)C(c2cccc(F)c2)n2nc(SCc3ccccc3F)nc2N1 (stereo unspecified)	inactive: -5.19%
NC(=NCCCCCCN=C(N)/N=C(\N)Nc1ccc(Cl)cc1)/N=C(\N)Nc1ccc(Cl)cc1	inactive: 11%
CC(=O)N1c2ccc(S(=O)(=O)NCc3ccccc3Cl)cc2CC1C (stereo unspecified)	inactive: -31.1%
CCCc1nnc(NC(=O)c2cc(=O)c3ccccc3o2)s1	inactive: 25.3%
COc1ccc(N2CCN(C(=O)C3CCCN(C(=O)c4cc5sccc5n4C)C3)CC2)cc1 (stereo unspecified)	inactive: -9.05%
CCOC(=O)c1c(C)n(-c2ccccc2)c2ccc(OC(=O)COc3ccccc3)cc12	inactive: -15%
CCc1cccc(NC(=O)CSc2nncn3c2cc2sccc23)c1	inactive: 1.64%
CCOc1ccc(CCNC(=O)c2cc3c(=O)n(CC)c4ccccc4c3s2)cc1OCC	inactive: -2.04%
Cc1ccc(NC(=O)c2sc3ncn(Cc4cccc(F)c4)c(=O)c3c2C)c(Br)c1	inactive: -5.92%
Cc1ccc(N(Cc2cccs2)C(=O)C(C)Oc2ccc(Cl)c(C)c2)cc1 (stereo unspecified)	inactive: 30.1%

SMILES	activation
Cc1ccc(C)c(NC(=O)Cn2nc(C)c3nn(-c4ccc(Cl)cc4)c(C)c3c2=O)c1	inactive: 7.78%
O=C(Nc1cccc(Cl)c1Cl)c1ccc2c(c1)N(Cc1cccc(Cl)c1)C(=O)c1ccccc1S2=O (stereo unspecified)	inactive: -3.17%
COc1ccc(N2CCN(c3ccc(-c4nc(-c5ccccc5)no4)cc3[N+](=O)[O-])CC2)cc1	inactive: -14.2%
CCn1c2ccccc2c2cc(CN3CCN(Cc4cc(OC)c(O)c(OC)c4)CC3)ccc21	inactive: 2.51%
COc1ccc(CNC(=O)CCS(=O)(=O)c2cc(Br)cc3c2N(C(C)=O)C(C)C3)cc1 (stereo unspecified)	inactive: 1.21%
CCOc1ccccc1NC(=O)CCCc1nc(-c2ccccc2Cl)no1	inactive: -10.5%
CCN(CC)S(=O)(=O)c1ccc2c(c1)N(CC(=O)N1CCN(c3ccc(OC)cc3)CC1)C(=O)CO2	inactive: -5.74%
Cn1cnc(S(=O)(=O)N2CCCC(C(=O)NCc3ccc(Cl)cc3)C2)c1 (stereo unspecified)	inactive: -4.4%
Cc1ccccc1Nc1c(-c2cccc(Cl)c2)nc2ncccn12	inactive: -14.7%
CCN(Cc1ccccc1)C(=O)c1cc(-c2ccccc2)n[nH]1	inactive: -32.3%
Cc1ccc(Cl)cc1N1CCN(C(=O)CN2C(=O)COc3ccc(S(=O)(=O)N4CCCCCC4)cc32)CC1	inactive: -0.733%
COc1ccc(S(=O)(=O)NCCSc2nnnn2-c2ccccc2)cc1OC	inactive: -31.6%
Cc1c(C)n(Cc2ccccc2)c2ccc(C(=O)N3CCN(c4ccc(F)cc4)CC3)cc12	inactive: 7.53%
CC(C)CCNC(=O)c1ccc2c(c1)NC(=O)C(C(C)C)N2 (stereo unspecified)	inactive: -2.53%
Cc1c(C(=O)O)c(O)cc2c1C(=O)c1c(O)c([C@@H]3O[C@H](CO)[C@@H](O)[C@H](O)[C@H]3O)c(O)c(O)c1C2=O	inactive: -8.76%
Cc1ccc(NC(=O)C2CCN(S(=O)(=O)c3ccc4[nH]c(=O)ccc4c3)CC2)cc1C	inactive: -9.69%
Cc1ccccc1CNc1nc(N(C)C)nc2c1cnn2C	inactive: -8.81%
CCc1ccccc1NCc1nnc2n1CCCCC2	inactive: -11%
Cn1c(=NC(=O)c2ccc(S(=O)(=O)N3CCCC3)cc2)sc2cc(F)ccc21	inactive: -13.2%
O=C1COc2cc(S(=O)(=O)CCC(=O)N3CCN(c4ccccc4F)CC3)c(Cl)cc2N1	inactive: -2.58%
CCOc1ccc(CCNC(=O)Cn2c(-c3cccs3)cc3cc(F)ccc32)cc1OCC	inactive: -2.32%
CCc1cccc(CC)c1NC(=O)Cn1c(=O)c(-c2cc(C)ccc2NC(C)=O)nc2ccccc21	inactive: 3.11%
CCc1ccc(CN(Cc2ccco2)c2cnc(S(C)(=O)=O)nc2C(=O)Nc2c(C)cccc2C)cc1	inactive: -20.5%
CCCc1cc(N2CCN(c3ccccc3)CC2)n2cnnc2n1	inactive: -2.82%

SMILES	activation
COc1cccc(N(Cc2nnc3n2CCCCC3)C(=O)Nc2ccccc2)c1	inactive: -31%
Cc1oc(-c2ccccc2F)nc1CSCC(=O)N1CCN(c2ccccc2)CC1	inactive: -6.94%
Cc1nc2nc(NC(=O)c3ccc(C(C)(C)C)cc3)[nH]n2c(=O)c1Cl	inactive: -4.22%
Cc1cccc(N2CCN(S(=O)(=O)c3ccc4c(c3)C(C(C)C)C(=O)N4)CC2)c1C (stereo unspecified)	inactive: -26.1%
Cc1ccc(-c2nnc(SCC(=O)c3ccc(Cl)cc3)n2-c2ccccc2)cc1	inactive: -1.9%
COc1cccc(CN2CCCN(CC(=O)Nc3ccc4c(c3)OCCO4)S2(=O)=O)c1	inactive: -8.58%
CCOc1ccccc1NC(=O)C1CCN(S(=O)(=O)c2cc(Br)cc3c2N(C(C)=O)CC3)CC1	inactive: -0.898%
O=C(Nc1cccc(O)c1)c1cc2nc(-c3ccc(Br)cc3)cc(C(F)(F)F)n2n1	inactive: 4.26%
COc1ccc(N2CCN(C(=O)CSc3c4c(nc5ccc(Cl)cc35)CCCC4)CC2)cc1	inactive: -6.63%
CCN(CC)CCOC(=O)C(Cc1cccc2ccccc12)CC1CCCO1 (stereo unspecified)	inactive: -12.7%
CCCCOc1ccc(C(=O)NCCc2sc(-c3ccc(OC)c(OC)c3)nc2C)cc1	inactive: -19.9%
CCOc1ccc(CNC(=O)c2ccc3c(c2)N(CC)CCS3)cc1	inactive: -2.01%
CCOC(=O)OCC/C(SC(=O)OCC)=C(\C)N(C=O)Cc1cnc(C)nc1N	inactive: -2.63%
COc1cccc(CCNC(=O)c2cnc3sc(N4CCCCCC4)nn3c2=O)c1	inactive: -3.99%
O=C(Nc1ccc2oc(-c3cccnc3)nc2c1)c1ccc(-c2cccc(Cl)c2)o1	inactive: -3.94%
COc1ccc(CN(C)c2ccc(-c3nc(-c4ccccc4)no3)cc2[N+](=O)[O-])cc1	inactive: -14.6%
COc1ccc(S(=O)(=O)c2c(Nc3c(C)cccc3C)sc(C(=O)c3ccc4c(c3)OCO4)c2N)cc1	inactive: -10.5%
Cc1ccc(-n2nc3c(=O)n(CC(=O)NC(C)C)nc(C)c3c2C)cc1	inactive: 9.43%
CS(=O)(=O)c1ncc(Cl)c(C(=O)Nc2c(C(=O)Nc3ccccc3)oc3ccccc23)n1	inactive: -12.3%
Cc1cccc(Nc2ncc(NC(=O)c3cccc(F)c3)c(Nc3cccc(C)c3)n2)c1	inactive: -7.86%
COc1ccc2c(CC(=O)Nc3ccc(C)cc3)coc2c1	inactive: -26.7%
CCC(CC)C(=O)Nc1ccc2nc(SCc3ccccc3)sc2c1	inactive: -14.6%
Clc1ccc(CCNc2nc3ccccc3c3nc(-c4ccccc4)nn23)cc1	inactive: -11.8%
CCN(C(=O)CSc1nnc(-c2cc(OC)c(OC)c(OC)c2)o1)c1ccccc1	inactive: -2.52%

Source: PubChem BioAssay AID1159614 (National Center for Advancing Translational Sciences (NCATS), 2016)
